Results: EPA's CvTdb concentration-time database
This continues a long series; more values of the same kind are listed elsewhere.

Columns and labels:
Test in all cases: concentration in plasma after dosing
Rat [1] = details: dosed: 2-Hydroxy-4-methoxybenzophenone, 250 mg/kg, oral, Male, F344
Mouse [2] = details: 0.5 h; dosed: 2-Hydroxy-4-methoxybenzophenone; 50 mg/kg; iv; Female; B6C3F1
Mouse [3] = details: 0.5 h; dosed: 2-Hydroxy-4-methoxybenzophenone; 50 mg/kg; iv; Male; B6C3F1
Mouse [4] = details: 0.5 h; dosed: 2-Hydroxy-4-methoxybenzophenone; 500 mg/kg; oral; Female; B6C3F1
Rat [5] = details: dosed: 2-Hydroxy-4-methoxybenzophenone, 250 mg/kg, oral, Female, F344
Mouse [6] = details: 4 h; dosed: 2-Hydroxy-4-methoxybenzophenone; 500 mg/kg; oral; Female; B6C3F1
Mouse [7] = details: 1 h; dosed: 2-Hydroxy-4-methoxybenzophenone; 250 mg/kg; oral; Female; B6C3F1
Rat [8] = details: 2 h; dosed: 2-Hydroxy-4-methoxybenzophenone; 100 mg/kg; oral; Female; F344
Mouse [9] = details: 6 h; dosed: 2-Hydroxy-4-methoxybenzophenone; 500 mg/kg; oral; Female; B6C3F1
Mouse [10] = details: dosed: 2-Hydroxy-4-methoxybenzophenone, 100 mg/kg, oral, Female, B6C3F1
Rat [11] = details: 5 min; dosed: 2-Hydroxy-4-methoxybenzophenone; 8 mg/kg; iv; Male; F344
Rat [12] = details: 0.5 h; dosed: 2-Hydroxy-4-methoxybenzophenone; 8 mg/kg; iv; Male; F344
Rat [13] = details: dosed: 2-Hydroxy-4-methoxybenzophenone, 250 mg/kg, oral, Female, F344; remark: listed apart in the source
Rat [14] = details: dosed: 2-Hydroxy-4-methoxybenzophenone, 250 mg/kg, oral, Female, F344; remark: listed apart in the source
Rat [15] = details: dosed: 2-Hydroxy-4-methoxybenzophenone, 100 mg/kg, oral, Female, F344
Rat [16] = details: 2 h; dosed: 2-Hydroxy-4-methoxybenzophenone; 500 mg/kg; oral; Male; F344
Rat [17] = details: dosed: 2-Hydroxy-4-methoxybenzophenone, 8 mg/kg, iv, Female, F344
Mouse [18] = details: 12 h; dosed: 2-Hydroxy-4-methoxybenzophenone; 50 mg/kg; iv; Male; B6C3F1
Mouse [19] = details: 6 h; dosed: 2-Hydroxy-4-methoxybenzophenone; 250 mg/kg; oral; Female; B6C3F1
Rat [20] = details: dosed: 2-Hydroxy-4-methoxybenzophenone, 500 mg/kg, oral, Male, F344
Rat [21] = details: dosed: 2-Hydroxy-4-methoxybenzophenone, 8 mg/kg, iv, Male, F344
Rat [22] = details: dosed: 2-Hydroxy-4-methoxybenzophenone, 250 mg/kg, oral, Female, F344; remark: listed apart in the source
Rat [23] = details: dosed: 2-Hydroxy-4-methoxybenzophenone, 8 mg/kg, iv, Female, F344; remark: listed apart in the source
Mouse [24] = details: 6 h; dosed: 2-Hydroxy-4-methoxybenzophenone; 250 mg/kg; oral; Female; B6C3F1; remark: listed apart in the source
Mouse [25] = details: 2.5 min; dosed: 2-Hydroxy-4-methoxybenzophenone; 250 mg/kg; oral; Female; B6C3F1
Rat [26] = details: dosed: 2-Hydroxy-4-methoxybenzophenone, 250 mg/kg, oral, Female, F344; remark: listed apart in the source
Mouse [27] = details: 1 h; dosed: 2-Hydroxy-4-methoxybenzophenone; 50 mg/kg; iv; Female; B6C3F1
Mouse [28] = details: 4 h; dosed: 2-Hydroxy-4-methoxybenzophenone; 500 mg/kg; oral; Female; B6C3F1; remark: listed apart in the source
Rat [29] = details: dosed: 2-Hydroxy-4-methoxybenzophenone, 500 mg/kg, oral, Female, F344
Rat [30] = details: dosed: 2-Hydroxy-4-methoxybenzophenone, 250 mg/kg, oral, Female, F344; remark: listed apart in the source
Rat [31] = details: dosed: 2-Hydroxy-4-methoxybenzophenone, 250 mg/kg, oral, Male, F344; remark: listed apart in the source
Mouse [32] = details: 1.5 h; dosed: 2-Hydroxy-4-methoxybenzophenone; 50 mg/kg; iv; Female; B6C3F1
Rat [33] = details: dosed: 2-Hydroxy-4-methoxybenzophenone, 250 mg/kg, oral, Female, F344; remark: listed apart in the source
Rat [34] = details: 12 h; dosed: Perfluorohexanoic Acid; 80 mg/kg; oral; Female; Harlan Sprague Dawley
Rat [35] = details: dosed: Perfluorohexanoic Acid, 40 mg/kg, Male, F344
Rat [36] = details: dosed: Perfluorohexanoic Acid, 40 mg/kg, Female, Harlan Sprague Dawley

O=C(c1ccccc1)c1ccc(O)cc1O [2,4-Dihydroxybenzophenone]
Details	concentration in plasma [ng/mL]
Mouse [10], 0.5 h	151
Mouse [10], 0.75 h	97.5
Mouse [10], 1 h	92.9
Mouse [10], 1.5 h	52.2
Mouse [10], 5 h	42.7
Mouse [10], 5 min	203
Rat [1], 1 h	283
Rat [1], 6 h	107
Rat [5], 1.5 h	316
Rat [5], 8 h	88.5
Rat [13], 1.5 h	566
Rat [13], 8 h	132
Rat [14], 1 h	565
Rat [14], 6 h	147
Rat [15], 1 h	195
Rat [15], 6 h	51.1

Details	concentration in plasma [ng/mL]
Mouse [2]	202
Mouse [3]	713
Mouse [4]	2910
Mouse [6]	592
Mouse [7]	207
Mouse [9]	241
Rat [8]	71.2
Rat [11]	88.5
Rat [12]	37.9
Rat [16]	323

COc1ccc(C(=O)c2ccccc2)c(O)c1 [2-Hydroxy-4-methoxybenzophenone]
Details	concentration in plasma [ng/mL]
Rat [17], 1.5 h	95.6
Rat [17], 8 h	10.2
Rat [20], 2 h	974
Rat [20], 5 min	16.3
Rat [21], 1.5 h	72.5
Rat [21], 12 h	53.5
Rat [22], 2 h	110
Rat [22], 5 min	9.73
Rat [23], 5 min	5680
Rat [23], 10 h	11.9
Rat [26], 2 h	114
Rat [26], 5 min	27.9
Rat [29], 1 h	2540
Rat [29], 8 h	93.7
Rat [30], 0.5 h	165
Rat [30], 10 h	19.4
Rat [31], 1 h	308
Rat [31], 6 h	37.2
Rat [33], 1.5 h	567
Rat [33], 8 h	18.6

Details	concentration in plasma [ng/mL]
Mouse [18]	12.7
Mouse [19]	18
Mouse [24]	26.5
Mouse [25]	37300
Mouse [27]	780
Mouse [28]	193
Mouse [32]	463

O=C(O)C(F)(F)C(F)(F)C(F)(F)C(F)(F)C(F)(F)F [Perfluorohexanoic Acid]
Details	concentration in plasma [ng/mL]
Rat [34]	164

concentration in plasma [ng/mL]
Details	0.25 h	3 h	5 min	6 h
Rat [35]	–	19100	286000	–
Rat [36]	139000	–	–	201
